Experimental data reported in PubChem BioAssay AID1745853 (National Center for Advancing Translational Sciences (NCATS), 2022).
The list shows a part of the results. These are further read-outs of the screen, such as a control signal, another cell line or another target. No call is given for them.

Key:
Assay in all cases: Primary Screen for Target Class Profiling of Small Molecule Inhibitors of Methyltransferases
[1] = molecular target: Glycine N-methyltransferase (Homo sapiens) (UniProt Q14749); conditions: purified enzyme, MTase-Glo SAH luminescence; measured here: GNMT inhibition; at 40 µM; stronger effect = lower value
In short: (§1)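 Each enzyme was reacted with SAM and its substrate, with compounds tested once at 40 uM; SAH formed was read by MTase-Glo luminescence.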

[2] = molecular target: Guanidinoacetate N-methyltransferase (Homo sapiens) (UniProt Q14353); conditions: purified enzyme, MTase-Glo SAH luminescence; measured here: GAMT inhibition; at 40 µM; stronger effect = lower value
In short: as §1

[3] = molecular target: Histamine N-methyltransferase (Homo sapiens) (UniProt P50135); conditions: purified enzyme, MTase-Glo SAH luminescence; measured here: HNMT inhibition; at 40 µM; stronger effect = lower value
In short: as §1

[4] = molecular target: Nicotinamide N-methyltransferase (Homo sapiens) (UniProt P40261); conditions: purified enzyme, MTase-Glo SAH luminescence; measured here: NNMT inhibition; at 40 µM; stronger effect = lower value
In short: as §1

[5] = molecular target: Phenylethanolamine N-methyltransferase (Homo sapiens) (UniProt P11086); conditions: purified enzyme, MTase-Glo SAH luminescence; measured here: PNMT inhibition; at 40 µM; stronger effect = lower value
In short: as §1
% is set by controls: 0 for no effect and ±100 for the full control effect.

Structure (SMILES)	activity change, negative = inhibition [1] [%]	activity change, negative = inhibition [2] [%]	activity change, negative = inhibition [3] [%]	activity change, negative = inhibition [4] [%]	activity change, negative = inhibition [5] [%]
CCCn1c(=O)c2ccc(C(=O)NC(C)C)cc2n2c(SCC(=O)Nc3ccc(C)c(F)c3)nnc12	-3.89	-0.258	-6.03	-3.74	-4.43
CNC(=O)Cn1nc(C(=O)N2CCC3(CC2)[C@H](O)C[C@@H]3O)cc1C	0.633	-0.351	1.41	0.828	-0.102
Cc1cc(N2CCCCC2)nc2ccccc12	3.89	5.3	2.15	-5.89	2.58
CCCC1c2ccc(C)n2CCN1C(=O)NCc1ccccc1 (configuration not stated)	-1.1	4.51	-7.99	4.52	-4.28
C[C@@H](c1ccc2nccn2c1)n1nnc2ncc(-c3cnn(C)c3)nc21	-13.7	-15.3	-14	-25.8	-22.1
NS(=O)(=O)c1cccc2c1c([N+](=O)[O-])cc1nc(O)c(O)nc12	-14.1	6.7	0.481	-8.51	1.7
CN(C)CCN(Cc1ccc(-c2ccc(CNCCc3ccccc3)cc2)cc1)C(=O)CCC1CCCC1	-4.61	13	-47.6	-45.8	-0.809
CC(C)c1ccc(CN2CCCC3(CCN(S(C)(=O)=O)C3)C2=O)cc1 (configuration not stated)	-7.82	-7.72	-2.34	-18	-7.78
Cc1cccc(N2CCN(C(=O)CCCc3nnc4n5nc(C)nc5c5ccccc5n34)CC2C)c1 (configuration not stated)	-6.71	0.433	9.43	8.46	3.29
CC(C)n1c(=O)c2ccc(C(=O)NC3CCCCC3)cc2n2c(=O)n(Cc3ccc(F)cc3Cl)nc12	4.3	0	6	1.03	3.97
COC(=O)c1ncn2c1C(=O)N(c1ccc(OC)c(Cl)c1)C(C)(C(=O)NCc1ccccc1)C2 (configuration not stated)	4.24	0	7.34	8.5	8
COc1cc([C@@H]2c3cc4c(cc3[C@H](O)C3COC(=O)[C@@H]32)OCO4)cc(OC)c1OC (some centres not stated)	-4.17	11.6	5.16	-2.39	12.3
CCCN1C(=O)c2c(C(=O)NCc3ccc(OC)cc3OC)ncn2CC1(C)C(=O)NCc1ccc(C)cc1 (configuration not stated)	1.6	2.77	4.08	1.29	4.99
CC(C)(C)c1ccc(CN2CCN(C(c3ccccc3)c3ccc(Cl)cc3)CC2)cc1 (configuration not stated)	-0.625	-34.9	5.49	-37.1	-4.18
CCCn1c(=O)c2ccc(C(=O)NC(C)CC)cc2n2c(SCC(=O)Nc3ccccc3C)nnc12 (configuration not stated)	4.48	0	8.99	-0.575	4.57
O=C(c1ccoc1)N1CCC(Cc2nc(C3CC3)n[nH]2)C1 (configuration not stated)	-1.69	2.28	2.4	-0.137	18.5
COc1ccc(C[C@H](N)C(=O)N[C@@H]2[C@H](O)[C@H](n3cnc4c(N(C)C)ncnc43)O[C@@H]2CO)cc1	6.1	–	7.66	–	–
C=C1C(=O)OC2C1CCC1(C)C(O)CCC(=C)C21 (configuration not stated)	-5.27	2.08	10.9	-7.55	5.85
COc1ccc(C(=O)N2CCC3(CC2)OCC(C(=O)NC2CC2)N3C(=O)c2cccc(C)c2)cc1 (configuration not stated)	-3.27	1.17	-0.491	-4.85	10.8

Structure (SMILES)	activity change, negative = inhibition [1] [%]	activity change, negative = inhibition [2] [%]	activity change, negative = inhibition [3] [%]	activity change, negative = inhibition [4] [%]	activity change, negative = inhibition [5] [%]
Cc1ccccc1CN1C(=O)c2nc3ccccc3n2CC1(C)C(=O)NC1CCCCCC1 (configuration not stated)	6.26	4.42	8.03	12.1	2.86
CCN(C(=O)Cn1c(=O)oc2cc(S(=O)(=O)N3CCCC3)ccc21)c1cccc(C)c1	-4.04	0.712	3.8	1.7	-2.6
CCC(C)NC(=O)Cn1nc2n(Cc3ccccc3)c(=O)c3ccc(C(=O)NC(C)C)cc3n2c1=O (configuration not stated)	-4.47	2.46	1	-6.32	-6.53
CC(O)(C#Cc1ccc2c(c1)N(c1nc(N)ncc1Cl)CC2)c1nccs1 (configuration not stated)	-28	-6.57	-17.1	-48.3	-12.3
COc1ccc([C@H]2CNC(=O)C2)cc1OC1CCCC1	4.28	-1.02	1.86	-14.7	-3.99
CC(C)OCCCn1c(=O)c2ccccc2n2c(=O)n(CC(=O)c3cccc(Cl)c3)nc12	-9.02	4.54	-0.9	-21.6	-3.58
CC1(C(=O)NC2CCCCC2)Cn2c(ccc2-c2ccco2)C(=O)N1Cc1ccccc1F (configuration not stated)	-1.01	3.57	4.84	1.32	-0.491
COC(=O)c1ncn2c1C(=O)N(Cc1ccc(OC)cc1OC)C(C)(C(=O)NC1CCCCCC1)C2 (configuration not stated)	2.51	2.84	3.35	-17.8	0.849
Cc1cc(C)cc(NC(=O)CN(C)S(=O)(=O)c2ccc3[nH]c4c(c3c2)CCCC4)c1	-5.15	3.8	-4.36	-2.14	0.266
N#Cc1ccc(N2N=C3c4ccc(C(=O)O)cc4CC[C@@H]3[C@@H]2C2CCCC2)cc1Cl	-49.6	-84.3	-9.52	-86.4	-54.6
C=C1CCC2(C(=O)OC3OC(CO)C(O)C(O)C3O)CCC3(C)C(=CCC4C5(C)CCC(OC6OC(CO)C(OC7OC(C)C(O)C(O)C7O)C(OC7OCC(O)C(O)C7O)C6O)C(C)(C)C5CCC43C)C2C1 (configuration not stated)	3.16	17.2	8.22	5.76	6.61
COC(=O)c1ncn2c1C(=O)N(Cc1ccccc1Cl)C(C)(C(=O)NC1CCCCCC1)C2 (configuration not stated)	4.55	0.988	5.67	5.79	0.12
Cc1cc2c(cc3n2CC(C)(C(=O)NC2CCCCCCC2)N(CCCc2ccccc2)C3=O)o1 (configuration not stated)	-14.1	-1.87	-4.16	-11.5	-11.7
O=C(NC(Cc1c[nH]c2ccccc12)c1nc2ccccc2[nH]1)c1ccccc1 (configuration not stated)	-25.5	4.38	1.59	2.76	-6.5
Cc1ccc(C(=O)Nc2noc3ccccc23)cc1	-29	-38.2	-25.8	-48.6	-37.6
COc1ccc(N2CCN(C(=O)COc3cccc(-c4nnc5n4CCCC5)c3)CC2)cc1	-11.6	-12.5	-7.4	-15.2	-12
Cc1ccc(CN2C(=O)c3cc4sccc4n3CC2(C)C(=O)NC2CCCCCC2)cc1 (configuration not stated)	-0.594	5.2	-0.418	-5.41	-4.33
CCC(C)NC(=O)c1ccc2c(=O)n(CCC(C)C)c3nn(Cc4ccccc4C)c(=O)n3c2c1 (configuration not stated)	4.9	0	4.94	6.39	5.18
O=C(CSc1nnc2n(CCc3ccccc3)c(=O)c3ccccc3n12)Nc1cc(F)ccc1F	4.28	7.53	7.46	3.66	3.92

Structure (SMILES)	activity change, negative = inhibition [1] [%]	activity change, negative = inhibition [2] [%]	activity change, negative = inhibition [3] [%]	activity change, negative = inhibition [4] [%]	activity change, negative = inhibition [5] [%]
CCOC(=O)c1cnn(-c2ccc(NC(=O)C(Cl)=C(Cl)Cl)cc2)c1C(F)(F)F	0.423	-17.5	9.3	-17.3	-2.62
CCOC(=O)c1cc2n(n1)CC(C)(C(=O)NCCCOC)N(c1ccc(C)cc1C)C2=O (configuration not stated)	10.8	1.07	10.4	14	10.4
O=C(c1ccc(-c2ccc(O)cc2)cc1)N1CCOC2(CNCCOC2)C1 (configuration not stated)	-6.33	-11	-5.56	-7.93	-12.3
CCCCN1C(=O)CSc2c(c3ccccc3n2C)C1C(=O)NCCC(C)C (configuration not stated)	13.9	0	7.12	7.24	10.3
COCCCNC(=O)C(NC(=O)C1CC1)C1CCN(C(=O)c2ccc(C)cc2)CC1 (configuration not stated)	-2.22	-2.63	1.95	-4.43	-4.96
CCN1C(=O)c2cc(-c3ccc(OC)cc3)nn2CC1(C)C(=O)NCc1ccccc1OC (configuration not stated)	1.26	0	8.43	11.8	3.39
c1ccc(OCCNc2nc(-c3cccnc3)nc3c2CCNCC3)cc1	-10.9	-2.6	-15.8	-7.46	-3.93
COc1cc(OC)c(NS(=O)(=O)c2ccc3c(c2)n(C)c(=O)n3C)cc1Cl	-5.2	2.5	-0.17	-0.887	-3.27
COc1ccc(OC2CCN(C(C)=O)CC2)c(C(=O)NCCc2ccccc2OC)c1	-2.46	0.484	-1.99	-3.25	0.924
O=C(Cn1c(=O)c2ccc(Cl)cc2n2nncc12)NCc1ccc2c(c1)OCO2	-5.71	1.24	8.19	-3.94	-1.92
CCC(O)C1CCN(C(=O)c2cnn3cc(CN(CC)CC)cnc23)CC1 (configuration not stated)	-5.28	-14.2	-10.6	-17.7	-19.6
CCOc1ccc(C2c3cccn3-c3sc4c(c3CN2C(=O)Nc2ccc(C(=O)OC)cc2)CCCC4)cc1 (configuration not stated)	2.01	2.67	3.79	1.88	6.36
CC1OC(OC2C(O)COC(O[C@@H]3[C@@H](O)[C@@H](O)[C@H](OC4C(OC(=O)[C@]56CCC(C)(C)CC5C5=CCC7[C@@]8(C)C[C@H](O)[C@H](OC9OC(CO)C(O)C(O)C9O)[C@@](C)(CO)C8[C@H](O)C[C@@]7(C)[C@]5(C)CC6)OCC(O)C4O)O[C@H]3C)C2O)C(O)C(O)C1O (some centres not stated)	-0.124	-0.216	5.41	-9.63	-6.1
COc1ccc([C@@H]2CN(c3nnnn3-c3ccccc3)C[C@H]2NC(C)=O)cc1	0.215	2.28	1.16	-10.1	13.9
CC1(C(=O)NC2CCCCCC2)Cn2c(cc3occc32)C(=O)N1Cc1cccnc1 (configuration not stated)	1.9	0	7.16	3.57	3.56
COc1cc(Nc2nc3ccccc3nc2NS(=O)(=O)c2cccc(NC(=O)c3ccc(C)c(OC)c3)c2)cc(OC)c1	-4.89	-16.9	-1.35	-45.5	-12.6
CCCSCCCN1C(=O)c2cc3sccc3n2CC1(C)C(=O)NC1CCCCC1 (configuration not stated)	0.187	5.15	-0.116	1.5	-0.055
COc1cc2c(cc1OC)CN(CCc1ccc(NC(=O)c3cc(OC)c(OC)cc3NC(=O)c3cnc4ccccc4c3)cc1)CC2	-16.3	-3.61	-12.2	-13.5	0.039
COC(=O)c1cc2n(n1)CC(C)(C(=O)NC1CCC(C)CC1)N(c1cc(C)ccc1C)C2=O (configuration not stated)	-2.36	6.31	-2.83	4.98	2.26
